# Measurements taken from PubChem BioAssay AID1159614 (National Center for Advancing Translational Sciences (NCATS), 2016).
# Screen size: about 45,000 compounds; about 65 (0.1%) were called active. Calls follow the shape of the dose curve; as a rule, active = well fitted activation curve with a large enough effect; inconclusive = small, poorly fitted or top-dose-only effect; inactive = no such curve, though single readings can be large or run the other way. This is one part of the list.
# Molecular target: Galactocerebrosidase (Homo sapiens) (UniProt P54803)
# Chain of UniProt P54803 (P54803 whole entry, looked up): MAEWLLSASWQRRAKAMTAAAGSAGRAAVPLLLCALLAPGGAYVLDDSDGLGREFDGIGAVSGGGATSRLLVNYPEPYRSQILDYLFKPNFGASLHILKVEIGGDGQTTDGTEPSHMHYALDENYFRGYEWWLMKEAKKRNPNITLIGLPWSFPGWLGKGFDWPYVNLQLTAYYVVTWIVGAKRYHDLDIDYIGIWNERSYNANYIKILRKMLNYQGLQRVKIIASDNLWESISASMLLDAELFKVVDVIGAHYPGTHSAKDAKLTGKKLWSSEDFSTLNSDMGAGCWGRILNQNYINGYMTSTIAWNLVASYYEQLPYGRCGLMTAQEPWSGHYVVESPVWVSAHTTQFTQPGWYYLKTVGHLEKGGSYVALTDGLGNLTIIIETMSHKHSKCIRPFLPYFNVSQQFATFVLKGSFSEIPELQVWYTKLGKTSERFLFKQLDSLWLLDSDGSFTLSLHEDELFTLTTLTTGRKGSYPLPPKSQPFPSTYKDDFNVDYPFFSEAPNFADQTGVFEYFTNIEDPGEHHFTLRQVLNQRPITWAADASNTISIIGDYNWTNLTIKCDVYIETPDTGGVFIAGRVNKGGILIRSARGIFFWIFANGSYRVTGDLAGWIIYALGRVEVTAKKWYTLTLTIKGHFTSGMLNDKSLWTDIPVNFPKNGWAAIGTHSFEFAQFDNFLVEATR
# Test: A Novel Cell-Based Assay to Identify Small Molecules for B -Galactocerebrosidase; also: 0% is about no effect; nearly all actives have a fitted effect of over 65% in size
# Conditions: 145M-Twi-hGALC-G270D cells (Twitcher mouse brain line with human GALC G270D), HMU-beta-Gal fluorescence, 48 h; series mostly up to 57.5 µM; activation: at the top concentration
# Method in brief: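 Fluorescence readout: HMU-β-gal cleavage by mutant GALC (0.1 mM final, citrate/phosphate pH 5.2 with 1 mg/mL taurocholate), stopped with carbonate/bicarbonate plus Triton X-100. Cells: murine Twitcher 145M-Twi expressing human G270D GALC; qHTS for activators.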
row,SMILES,activation
1,Cc1c(Cl)cccc1Nc1nn2c(=O)c3ccc(C(=O)N(C)Cc4ccccc4)cc3nc2s1,inactive: -23%
2,O=C(Nc1cccc(-c2nc3ccccc3o2)c1)c1cccc2c(Cl)cccc12,inactive: -1.17%
3,COCCNC(=O)c1[nH]c2cc(C)ccc2c1Sc1ccc(Cl)cc1,inactive: -23.7%
4,Cc1ccccc1NC(=O)c1ccc(N(Cc2ccccc2)S(C)(=O)=O)cc1,inactive: 2.85%
5,COc1ccc(CNC(=O)c2cnc3ccc(C)cn3c2=O)cc1,inactive: -16.3%
6,CCc1nn(CC(=O)NC(C)CC)c(=O)c2cc3occc3n12 (stereo unspecified),inactive: -12.6%
7,CC(C)(C)OC(=O)N1CCC(c2c(C(=O)Nc3ccc4c(c3)OCO4)cnn2-c2ccccc2)CC1,inactive: -3.46%
8,O=C(COc1ccccc1)OCc1cc(=O)n2nc(-c3cccs3)sc2n1,inactive: -9.22%
9,CC(C)OC(=O)OCOP(=O)(CO[C@H](C)Cn1cnc2c(N)ncnc21)OCOC(=O)OC(C)C,inactive: -2.92%
10,Cc1c(Cl)cccc1NC(=O)c1cc2nc(-c3ccc4c(c3)OCO4)cc(C(F)(F)F)n2n1,inactive: -11.2%
11,COC(=O)c1ccccc1NC(=O)CCS(=O)(=O)c1nc(-c2ccc3c(c2)OCO3)cc(C(F)(F)F)n1,inactive: -8.69%
12,COC(=O)c1c(-c2cccs2)csc1NC(=O)c1ccc(C(C)C)cc1,inactive: -22.1%
13,CCOCCCn1c(=N)c(S(=O)(=O)c2ccc(Cl)cc2)cc2c(=O)n3cccc(C)c3nc21,inactive: -10.8%
14,COc1ccccc1CNc1ncnc2c1nnn2C,inactive: -12.5%
15,O=C(NCc1ccc2c(c1)CCN2C(=O)c1ccncc1)c1ccccc1F,inactive: -20.6%
16,O=C(NCc1ccc(F)cc1)c1ccc2oc(=O)n(Cc3ccccc3)c2c1,inactive: -12.1%
17,COc1ccccc1NC(=O)C(=O)NCC(c1cccnc1)N1CCc2ccccc2C1 (stereo unspecified),inactive: -16.1%
18,COc1cccc(CNC(=O)Cn2c(=O)oc3cc(S(=O)(=O)N4CCCCCC4)ccc32)c1,inactive: -15.6%
19,CN1CC(=O)N(CC(=O)Nc2ccc(OC(F)(F)F)cc2)c2ccccc2C1=O,inactive: 5.33%
20,CCOc1ccc(-c2cc(C(=O)NCCc3ccc(OC)c(OC)c3)[nH]n2)cc1,inactive: -11.4%
21,CCc1ccc(NC(=O)Cn2c(=O)c3cc(Cl)ccc3n3nncc23)cc1,inactive: -7.67%

row,SMILES,activation
1,C=Cc1ccc(Cn2c(SCC(=O)N3CCN(c4ccc(F)cc4)CC3)nc3ccccc32)cc1,inactive: -8.47%
2,COC(=O)c1cccc(CN2C(=O)SC(Nc3ccc(C)cc3)C2=O)c1 (stereo unspecified),inactive: -11.4%
3,Cc1ccccc1CNC(=O)C(=O)NCC(c1cccs1)S(=O)(=O)c1cccs1 (stereo unspecified),inactive: 9.1%
4,O=c1c2oc3ccccc3c2n(Cc2cccc(F)c2)c(=O)n1Cc1ccc2c(c1)OCO2,inactive: -12.4%
5,CC(=O)Nc1nonc1-c1nnc(SCc2ccccc2)n1C,inactive: -5.13%
6,COc1ccc(-n2nc(C(=O)Nc3cc(C)ccn3)c3c4ccccc4n(C)c3c2=O)cc1Cl,inactive: -5.31%
7,CCC(=O)Nc1cccc(-c2nc3cc(C)ccc3o2)c1,inactive: -21.3%
8,CC(=O)c1ccc(N2CCN(c3ccc4cc(S(=O)(=O)N5CCC(C)CC5)ccc4n3)CC2)cc1,inactive: -10.3%
9,Cc1ccc(S(=O)(=O)c2cn(CC(=O)Nc3ccc(Cl)cc3)c3ccc(F)cc3c2=O)cc1C,inactive: -10.2%
10,C[C@@]12CCC[C@H]1[C@@H]1CC[C@H]3C[C@@H](O)CC[C@]3(C)[C@H]1CC2,inactive: -16.9%
11,CCOC(=O)c1ccc(NC(=O)CCc2nc3cccnc3n2Cc2cccs2)cc1,inactive: -12%
12,Cc1cccc(NC(=O)/C(C#N)=C/c2ccc(C)o2)c1,inactive: -14%
13,CCOC(=O)c1c(NC(=O)c2cc(CC)on2)sc(C(C)=O)c1C,inactive: -21%
14,COc1cc(C2CC(=O)Nc3c2c(=O)n(C)c2ncnn32)cc(OC)c1OC (stereo unspecified),inactive: -5.44%
15,CSc1ccc(CCNC(=O)c2c(C)oc3ncn(C)c(=O)c23)cc1,inactive: -10.9%
16,COc1ccc(N2CCN(C(=O)C3CCN(c4nc5ccc(C)cc5[nH]4)CC3)CC2)cc1,inactive: -5.56%
17,Cc1cccc(Cn2c(Cc3ccccc3)nc3ccccc32)c1,inactive: -10.8%
18,O=C(CN1c2ccccc2S(=O)(=O)c2ccccc21)Nc1cccc(C(F)(F)F)c1,inactive: -17.4%
19,COc1ccc(CCN2CCC(CNC(=O)c3cnn(-c4cccc(Cl)c4)c3C3CCN(C(=O)OC(C)(C)C)CC3)CC2)cc1,inactive: -7.86%
20,CC(=O)Nc1cccc(C(=O)NCc2ccc3c(c2)CCN3C(=O)c2ccc(F)cc2)c1,inactive: -8.7%
21,O=C(Nc1ccc(C(F)(F)F)cc1)C(Cc1ccccc1)n1cccc1 (stereo unspecified),inactive: -0.235%

row,SMILES,activation
1,O=C(NCCCN1CCN(c2ccccc2F)CC1)c1ccc2nc(N3CCCCC3)sc2c1,inactive: -11.9%
2,CC(=O)c1ccc(NC(=O)COCc2cc(-c3ccc(F)cc3)on2)cc1,inactive: -13.4%
3,COc1ccccc1NC(=O)C1=C(C)Nc2nc(SCc3ccccc3)nn2C1c1ccncc1 (stereo unspecified),inactive: -13.5%
4,Cc1cc(NC(=O)c2ccc(NC(=O)CCS(=O)(=O)c3cccs3)cc2)ccc1Br,inactive: -26.2%
5,CCN(C(=O)C1CCCN(c2ncnc3c2nc2n3CCCCC2)C1)c1cccc(Cl)c1 (stereo unspecified),inactive: -17.6%
6,Cc1cc2c(cc3c(SCc4ccccc4Cl)nnc(C)n32)o1,inactive: -5.98%
7,COc1cccc(NS(=O)(=O)c2ccc3[nH]cc(C(=O)N4CCCC4)c(=O)c3c2)c1,inactive: -1.86%
8,Cc1c(CCNC(=O)C(C)(C)C)sc2nc(-c3ccc(F)cc3)nn12,inactive: 1.81%
9,Cc1cc(Nc2cc(F)ccc2C)nc(-n2nc(C)cc2C)n1,inactive: -7.27%
10,COc1cc(NC(=O)Cn2nc3c(cc2=O)CC(C)CC3)cc(OC)c1OC (stereo unspecified),inactive: -15.6%
11,COc1cc(OC)c(N(C)C(=O)c2sc3nc4n(c(=O)c3c2C)CCCCC4)cc1Cl,inactive: -14.4%
12,COc1ccc2[nH]cc(CCN=C(NC(=O)c3ccccc3C)Nc3nc(C)cc(C)n3)c2c1,inactive: -6.47%
13,COc1ccc(OCC(=O)Nc2ccc(-c3nc4cc(C)c(C)cc4o3)cc2)cc1,inactive: -20.2%
14,Cc1c(C(=O)N2CCC(C)CC2)c(S(=O)(=O)Nc2ccc(OC(F)(F)F)cc2)c(C)n1C,inactive: -7%
15,CC(C)N(Cc1ccccc1)C(=O)CN1C(=O)CSc2ccc(S(=O)(=O)N3CCCC3)cc21,inactive: -25.6%
16,CN(C)S(=O)(=O)N(CC(=O)NCCSc1ccccc1)c1ccccc1,inactive: -12.1%
17,CCn1cc(C(=O)N2CCN(c3ccc(OC)cc3)CC2)c(=O)c2cc(S(=O)(=O)N3CCOCC3)ccc21,inactive: -16.8%
18,N#Cc1c[nH]n2c(NC3CCCC3)c(-c3ccc(Cl)cc3)nc12,inactive: -12.2%
19,CCN(CC)CCNC(C(=O)OCCC(C)C)c1ccccc1 (stereo unspecified),inactive: -13.1%
